The other results are listed elsewhere or left out.
What follows are sequences tested on PF3D7_0420300 AP2 domain 1 (GST-tagged) (assay: gcPBM binding intensity (ln(normalized median fluorescence intensity)); higher = stronger DNA binding).
Outline: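 An Agilent 4 × 180k array of primer-extended double-stranded 36-bp intergenic genomic probes, with negative controls, was incubated for 1 h with GST-tagged P. falciparum DNA-binding domains expressed in E. coli. Alexa488 anti-GST antibody detected bound protein, scanned at 488 nm. Binding intensity is the highest Masliner-normalised natural-log median intensity across replicate spots of either probe orientation.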
“GAAAAGCATAGATGCACACATATATATATATATATA [CACACA_site2169]” was tested, and the “gcPBM binding intensity (ln)” value was 9.26. In the case of “ATATACTTTTTTTTTTTTTTTTTAACGTTATTTATG [CACACA_negctrl_site1277]”, the “gcPBM binding intensity (ln)” value is reported as 9.45. “TTACACATATATATAAATATATATAAATATATATAT [CACACA_negctrl_site150]” was tested, and the “gcPBM binding intensity (ln)” value was 9.08. In the case of “AAAATATATGAAAACAGTACATATAAAAATTAAAAA [XGTACX_site2594]”, the “gcPBM binding intensity (ln)” value is reported as 9.31. With “ATTAATTTTGGTTCATGTACATAAGAAATAAACTCT [XGTACX_site4534]” the “gcPBM binding intensity (ln)” value was 9.12. With “ATTTTTATACGTTTTTTTTTTTTTTTTTTTTATTTA [CACACA_negctrl_site1142]” the “gcPBM binding intensity (ln)” value was 9.62. With “TACAGACAGAAATGCACACACATATATATATATATA [CACACA_site2283]” the “gcPBM binding intensity (ln)” value was 9.53. “TATTTGTTTGAATTTTTTTTTTTTTTTTTTTATGTG [CACACA_negctrl_site966]” was tested, and the “gcPBM binding intensity (ln)” value was 9.12. “TTTAAATAATCTAGGTGTACTTTCCTTTATAAATGT [XGTACX_site7859]” was tested, and the “gcPBM binding intensity (ln)” value was 9.18. With “AGAATACATATATGAACACACAGAGTTTTAAAAAAT [CACACA_site2735]” the “gcPBM binding intensity (ln)” value was 9.67. For “TATTTCAATATATACCTTTGCTTTTTTAATATACTT [XGTACX_negctrl_site556]”, the “gcPBM binding intensity (ln)” value was 9.48. With “TCAATATAAATTAGTTGTACAGTTTTTTTTAATTAT [XGTACX_site6358]” the “gcPBM binding intensity (ln)” value was 9.18. For “AATATAAATAAAAACACACACAATGGTACCTATATA [CACACA_site7688]”, the “gcPBM binding intensity (ln)” value was 9.99. For “ATTTTTTGGAAAAGAAGTACAATGGATTTATACGTT [XGTACX_site891]”, the “gcPBM binding intensity (ln)” value was 9.09. “ATCAAATAATAGCAAACACACAAAAAATAAAAAAAA [CACACA_site4146]” was tested, and the “gcPBM binding intensity (ln)” value was 9.82. “AATGTTTTTTTTTTTTTTTTTTTTTATTTATTGTTA [CACACA_negctrl_site505]” was tested, and the “gcPBM binding intensity (ln)” value was 9.48. With “TAACATATAATATTATGTACATATATACATATATAA [XGTACX_site7467]” the “gcPBM binding intensity (ln)” value was 9.09. For “AAAAAATCACGACACACACACACACTAAAAAAAAAA [CACACA_site6792]”, the “gcPBM binding intensity (ln)” value was 10.1. In the case of “TTAATTTTTGAAGGTACACACTAATATATTAAATAT [CACACA_site4791]”, the “gcPBM binding intensity (ln)” value is reported as 9.27. “AAAACAGACAAACACACACACACATATATATATATA [CACACA_site3393]” was tested, and the “gcPBM binding intensity (ln)” value was 10. For “CTTTTAATTATAAAATGTACTTAAAAATAATAATAC [XGTACX_site635]”, the “gcPBM binding intensity (ln)” value was 9.05. With “AAAATGAAACAAATATGTACACATATAAATATTTCC [XGTACX_site54]” the “gcPBM binding intensity (ln)” value was 9.32. For “TTATCCCCCTATCATTGTACATTAATACAAACTAAA [XGTACX_site5630]”, the “gcPBM binding intensity (ln)” value was 9.54. With “ATAAAGAAAATATGGAGTACATTTATATCCAATATA [XGTACX_site3085]” the “gcPBM binding intensity (ln)” value was 9.17. With “TTTTATGAAAAATGGCTTATCTGTAAAGAAGTGGAG [CACACA_negctrl_site1586]” the “gcPBM binding intensity (ln)” value was 9.11. “ATATTTGTAATTATTAAACACACACTAATTATATAT [CACACA_site8803]” was tested, and the “gcPBM binding intensity (ln)” value was 9.63. With “AAATATATACTACCGATGCACTAAATATAAACACAT [GTGCAC_site9777]” the “gcPBM binding intensity (ln)” value was 9.67. In the case of “AAGAATTATATATTCACACAAAAAAAAAGTAAAAGA [CACACA_site5335]”, the “gcPBM binding intensity (ln)” value is reported as 9.5. “TATAATATATATATATGTACATATTATTTACATATA [XGTACX_site7312]” was tested, and the “gcPBM binding intensity (ln)” value was 9.15. With “AAAAAAAAAAAAAAGAGTACATTTATTTATATATCT [XGTACX_site2381]” the “gcPBM binding intensity (ln)” value was 9.06. For “AATATATTAAATCTTACACACTAAAAAATATGTAAC [CACACA_site4325]”, the “gcPBM binding intensity (ln)” value was 9.47. For “TGTTTAACACATGTTTCAAACAAAAAAAAAAAGACA [CACACA_negctrl_site1356]”, the “gcPBM binding intensity (ln)” value was 9.2. With “TTTTAACATAGAAGTACACACATATAATCAATCATA [CACACA_site5313]” the “gcPBM binding intensity (ln)” value was 9.6. With “TTTTAAATTTTTTAAAGTACACGTCGAAAAGGTATA [XGTACX_site76]” the “gcPBM binding intensity (ln)” value was 8.97. In the case of “TATTTATTTATTTATGCATGCATGAATAATTTTTAC [TGCATGCA_site31]”, the “gcPBM binding intensity (ln)” value is reported as 9.13. In the case of “ATTATTTAGAAATGAGCACACAAAAAGAAGAATTTT [CACACA_site7913]”, the “gcPBM binding intensity (ln)” value is reported as 9.33. “ACAAGAGAAGTAATTGCACACGTTGTTTCTTTTTCT [CACACA_site35]” was tested, and the “gcPBM binding intensity (ln)” value was 9.55. In the case of “CCACATATACAAAACACACACACAACGTTTTAATAA [CACACA_site1978]”, the “gcPBM binding intensity (ln)” value is reported as 9.95. For “ATAATAATATAAAATACACACCTATTATTTTTACAA [CACACA_site6069]”, the “gcPBM binding intensity (ln)” value was 9.47. “TCACTATAGTAATTTACACACATTTGAAGAAAATGT [CACACA_site7626]” was tested, and the “gcPBM binding intensity (ln)” value was 9.48. For “TTATCATTTGGACACGCACACACACCGAAAAAGAAA [CACACA_site8008]”, the “gcPBM binding intensity (ln)” value was 9.85. “TTTTTTGCTAAAAAGAGTACTAATAAAAAATTTATT [XGTACX_site5235]” was tested, and the “gcPBM binding intensity (ln)” value was 8.77. “TTTTTGTAATTATATTAATATATATATATATATATA [CACACA_negctrl_site198]” was tested, and the “gcPBM binding intensity (ln)” value was 9.11. For “AATAATTTAAGGAATACACACAAGAAAAAAATAAGA [CACACA_site60]”, the “gcPBM binding intensity (ln)” value was 9.9. In the case of “GAAAACATTAAAAGTTAGATCATAAGAAAAGAATAT [GTGCAC_negctrl_site726]”, the “gcPBM binding intensity (ln)” value is reported as 9.32. For “GTTCATCACATATACACATGCATATTCTAATATGTA [TGCATGCA_site809]”, the “gcPBM binding intensity (ln)” value was 9.37. In the case of “ACATTATATAAAATATGTACATATAAAAAATTCTAT [XGTACX_site1617]”, the “gcPBM binding intensity (ln)” value is reported as 9.25. With “CATATATGTGATAACACGCACACAAATGTATAGAAT [CACACA_site2594]” the “gcPBM binding intensity (ln)” value was 9.52. “TCTAATGATATATACACACACATATAGATTTATATA [CACACA_site7044]” was tested, and the “gcPBM binding intensity (ln)” value was 9.64. “ATTTTTCTAAAATACTGTACAAAGGTGCATAAAAAG [XGTACX_site4425]” was tested, and the “gcPBM binding intensity (ln)” value was 9.03. “ATATTTATGGAATATACACACATGTATAATTATATA [CACACA_site2033]” was tested, and the “gcPBM binding intensity (ln)” value was 9.44. For “TTTTCTGTTTTCATTACACACCTTACAAGAACAATA [CACACA_site2158]”, the “gcPBM binding intensity (ln)” value was 9.34. With “AAATAAGAAAAAGCGCGTACACATAACATTTTTATA [XGTACX_site8807]” the “gcPBM binding intensity (ln)” value was 9.49. In the case of “TGCTTTTCTTTTTGCACACTTATGCATATATATATA [CACACA_site2583]”, the “gcPBM binding intensity (ln)” value is reported as 9.54. TTTATTCAAGGAATAGTGCATAATAATAAGTATTAT was tested, and the “gcPBM binding intensity (ln)” value was 9.11. For TGTATTCTCTTAGTAGTGCATTTGAAGATTATATAA, the “gcPBM binding intensity (ln)” value was 9.14.
